# Data from the RNAGym collection of RNA variant scans (doi:10.1093/nar/gkz1192).
# Read counts are not given, so values of variants with three or more changes are uncertain.
# B1: CPEB3 Ribozyme (parent)
# chain: UAACAGGGGGCCACAGCAGAAGCGUUCACGUCGCAGCCCCUGUCAGAUUCUGGUGAAUCUGCGAAUUCUGCUGUAUAUCUC
# Variants of: B1
# Experiment: self-cleavage, relative activity (ratio to wild type); higher = more cleavage; in vitro, sequencing
# Summary of the method: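 CPEB3 self-cleaving ribozyme mutant libraries were made by rounds of error-prone PCR, barcoded, and transcribed in vitro with T7 RNA polymerase for 5 hours at 37°C. Cleavage occurred during transcription and a 15 min DNase I step before EDTA stop. RNAs were reverse transcribed with template switching and Illumina-sequenced, with DNA sequencing mapping barcodes to variants. Relative activity is the variant's cleaved/total read fraction divided by wild type's (minimum 5 reads), averaged across three batches.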
row,Variant,self-cleavage
1,UAACAGGGGGCCACAGCAGAAGCGUUCACGUCGCAGCCCCCGCCAGAUUCUGGUGAAUCUGCGAAUACUGCUCAAUAUCUC [U41C U43C U67A G73C U74A],0.09
2,UAACAGGGGGCCACAGCAGAAGCGUUCACGUCGCAGCCCCCGCCAGAUUCUGGUGAAUCUGCGAAUCCUGCUGUAUAUCUC [U41C U43C U67C],0.14
3,UAACAGGGGGCCACAGCAGAAGCGUUCACGUCGCAGCCCCCGCCAGAUUCUGGUGAAUCUGCGAAUUCUGCCGUAUGUCUC [U41C U43C U72C A77G],0.28
4,UAACAGGGGGCCACAGCAGAAGCGUUCACGUCGCAGCCCCCGUCAGAAUCUGGUGAAUCUGCGAAUUCUGCUGUAUACCUC [U41C U48A U78C],0.52
5,UAACAGGGGGCCACAGCAGAAGCGUUCACGUCGCAGCCCCCGUCAGACUCUGGUGAAUCUGCGAUUUCUGCUGUAUAACAC [U41C U48C A65U U78A U80A],0.11
6,UAACAGGGGGCCACAGCAGAAGCGUUCACGUCGCAGCCCCCGUCAGACUCUGGUGAAUCUGCGAAUUCUGCUGUGUAUCUC [U41C U48C A75G],0.63
7,UAACAGGGGGCCACAGCAGAAGCGUUCACGUCGCAGCCCCCGUCAGACUCUGGUGAAUAUGCGAAUUCUGCUGUAUAACUC [U41C U48C C59A U78A],0.11
8,UAACAGGGGGCCACAGCAGAAGCGUUCACGUCGCAGCCCCCGUCAGACUCUGGCGAGUCUGCGAUUUCUGCUGUAUAUUUC [U41C U48C U54C A57G A65U C79U],0.22
9,UAACAGGGGGCCACAGCAGAAGCGUUCACGUCGCAGCCCCCGUCAGAUACUGGUGAAACUGCGAAUUCUGCUGUAUAUCUC [U41C U49A U58A],0.34
10,UAACAGGGGGCCACAGCAGAAGCGUUCACGUCGCAGCCCCCGUCAGAUCCUGGUGGAUCUGCGAAUUCUGCUGUAUAUCUC [U41C U49C A56G],1.14
11,UAACAGGGGGCCACAGCAGAAGCGUUCACGUCGCAGCCCCCGUCAGAUCCUGGUGAUUCUGCGAAUUCUGCCGUAUAUCUC [U41C U49C A57U U72C],0.25
12,UAACAGGGGGCCACAGCAGAAGCGUUCACGUCGCAGCCCCCGUCAGAUCCUGGUGAAUCUGCGAACCCUGCUGUAUAUCUC [U41C U49C U66C U67C],0.12
13,UAACAGGGGGCCACAGCAGAAGCGUUCACGUCGCAGCCCCCGUCAGAUUCAGGUGAAUCUGCGGGUUCUGCUGUAUAUCUC [U41C U51A A64G A65G],0.08
14,UAACAGGGGGCCACAGCAGAAGCGUUCACGUCGCAGCCCCCGUCAGAUUCAGGUGAAUCUGCAAAUUCUGCUGUAUAUCUC [U41C U51A G63A],0.89
15,UAACAGGGGGCCACAGCAGAAGCGUUCACGUCGCAGCCCCCGUCAGAUUCAGGAGUAUCUGCGGAUUCCGCUGUAUAUCUC [U41C U51A U54A A56U A64G U69C],0.72
16,UAACAGGGGGCCACAGCAGAAGCGUUCACGUCGCAGCCCCCGUCAGAUUCAGGUGAAUCUGCGAACUCUGCUGUAUACCUC [U41C U51A U66C U78C],0.52
17,UAACAGGGGGCCACAGCAGAAGCGUUCACGUCGCAGCCCCCGUCAGAUUCAGGUGAAUCUGCGAAUUCUGCUGUAUACCUC [U41C U51A U78C],1.21

row,Variant,self-cleavage
1,UAACAGGGGGCCACAGCAGAAGCGUUCACGUCGCAGCCCCCGUCAGAUUCCGGUGAGUCUGCGAAUUCUGCUGUAUAUCUC [U41C U51C A57G],0.88
2,UAACAGGGGGCCACAGCAGAAGCGUUCACGUCGCAGCCCCCGUCAGAUUCCGGUGAAUCUGCGAAUCCUGCUGUACAUCUC [U41C U51C U67C U76C],0.42
3,UAACAGGGGGCCACAGCAGAAGCGUUCACGUCGCAGCCCCCGUCAGAUUCCGGUGAAUCUGCGAAUUCUGCUGUAUAUCCC [U41C U51C U80C],1.05
4,UAACAGGGGGCCACAGCAGAAGCGUUCACGUCGCAGCCCCCGUCAGAUUCGGAUGAAUCUGCGAAUUCUGCUGUAUAUCUC [U41C U51G G53A],1.19
5,UAACAGGGGGCCACAGCAGAAGCGUUCACGUCGCAGCCCCCGUCAGAUUCUGGAGUAUCUGCGAAUCCUGCUGUAUAUCUC [U41C U54A A56U U67C],0.47
6,UAACAGGGGGCCACAGCAGAAGCGUUCACGUCGCAGCCCCCGUCAGAUUCUGGAGAAUCUGCGAAUUCUGCAGUAAAUCUC [U41C U54A U72A U76A],0.77
7,UAACAGGGGGCCACAGCAGAAGCGUUCACGUCGCAGCCCCCGUCAGAUUCUGGAGAAUCUGCGAAUUCUGCUGGAUAUCUC [U41C U54A U74G],1.35
8,UAACAGGGGGCCACAGCAGAAGCGUUCACGUCGCAGCCCCCGUCAGAUUCUGGCGAGUCUGCGGAUUCUGCUGUAUAUCUC [U41C U54C A57G A64G],0.46
9,UAACAGGGGGCCACAGCAGAAGCGUUCACGUCGCAGCCCCCGUCAGAUUCUGGCGAAUCUACGAACUCUGCUGUAUAUCUC [U41C U54C G61A U66C],0.28
10,UAACAGGGGGCCACAGCAGAAGCGUUCACGUCGCAGCCCCCGUCAGAUUCUGGCGAAUCUGCGAACUCUGCUGUAUAUCUC [U41C U54C U66C],0.42
11,UAACAGGGGGCCACAGCAGAAGCGUUCACGUCGCAGCCCCCGUCAGAUUCUGGCGAAUCUGCGAAUUCUGCGGUAUAUCUC [U41C U54C U72G],1.1
12,UAACAGGGGGCCACAGCAGAAGCGUUCACGUCGCAGCCCCCGUCAGAUUCUGGCGAAUCUGCGAAUUCUGCUGUAUAUCCC [U41C U54C U80C],0.98
13,UAACAGGGGGCCACAGCAGAAGCGUUCACGUCGCAGCCCCCGUCAGAUUCUGGGGAGUCUGCGAAUUCUGCUGUAUAUCAC [U41C U54G A57G U80A],0.65
14,UAACAGGGGGCCACAGCAGAAGCGUUCACGUCGCAGCCCCCGUCAGAUUCUGGGGAAUCUGCGAGUUCUGCUGUAUAUCUC [U41C U54G A65G],0.31
15,UAACAGGGGGCCACAGCAGAAGCGUUCACGUCGCAGCCCCCGUCAGAUUCUGGGGAAUCUGCGAAUUCUGCCGUAUAUCUC [U41C U54G U72C],1.13
16,UAACAGGGGGCCACAGCAGAAGCGUUCACGUCGCAGCCCCCGUCAGAUUCUGGUGAACCUGCGAAUUCAGCUGUAUCUCUC [U41C U58C U69A A77C],0.28
17,UAACAGGGGGCCACAGCAGAAGCGUUCACGUCGCAGCCCCCGUCAGAUUCUGGUGAAUCAGCGAGUUCUGCUGUAUAUCUC [U41C U60A A65G],0.12
